Measured values as given in the supplement of paper PMC11417369.
This is one part of the list.

Each sequence was assayed on PfHDP1 homeodomain (GST-tagged) (assay: gcPBM binding intensity (ln(normalized median fluorescence intensity)); higher = stronger DNA binding).
How it was run: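 Alexa488 anti-GST antibody, scanned at 488 nm, detected GST-tagged P. falciparum DNA-binding domains that had been expressed in E. coli and incubated for 1 h on an Agilent 4 × 180k array. The array carried primer-extended double-stranded 36-bp intergenic genomic probes and negative controls. Binding intensity is the highest Masliner-normalised natural-log median intensity across replicate spots of either orientation of each probe.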

Sequence	gcPBM binding intensity (ln)
AGTTATAAAATATTTGCATGTAAATATATTATCTAT [TGCATGCA_site1015]	6.61
ACTTTTATTATTTATATACACACTTGCTGAAATGTT [CACACA_site3637]	7.53
TATGAAATGCTCCAATCACACATGAATGTAATATAT [CACACA_site5458]	10.2
ATATGATTTATAAAGTGTACCTTATTATAAGAAACA [XGTACX_site7914]	6.42
TTTTTTTTTTTTAGAGTACACACTTTTTTACATTTA [CACACA_site3836]	6.13
GTTGAAAATACAGAACGTACACGTTTGCCATATTGT [XGTACX_site2254]	6.09
CACAAATATACAAATACACACAAATATACACATATA [CACACA_site7176]	6.79
ATGAAAATATTTAAAAGTACAGAAATATAAAACCTT [XGTACX_site403]	6.72
TATTTTATACACTTGCTAAAACATTAACACATATGT [CACACA_negctrl_site1818]	6.83
AAAATATTTATCATTTGTACTTAGATGTAAACTTGA [XGTACX_site1778]	5.89
TATAAAATATAAATAAATAAATAAATATATATATAT [TGCATGCA_negctrl_site448]	8.82
AAAAAACAAAAACACACGCACACAAAAAAAAAAAAA [CACACA_site802]	6.82
TATATATATATATATTGTACTAAATCATTTAAATGA [XGTACX_site8016]	9.01
TAAAATTATTAATGAGTGCATTATAAAATCTATATA [GTGCAC_site9493]	8.93
TTTTCTTTCTTTCAAACACACATTAATTTTATTCAT [CACACA_site2734]	6.45
GTTGTTATATAAAATTGTACATAAAAAACAAAATAT [XGTACX_site5313]	6.8
ATAAATGGCTATAGCATATTGTATATGTGATTATAA [CACACA_negctrl_site948]	6.54
TCATATATTATATATTGTACAAAATAATAAGTATTT [XGTACX_site3987]	6.47
ATAATTGTTTAAAGGTGTACAATACATATATTTTAA [XGTACX_site3648]	6.3
ATTATACACCCGCGCACACACAACAAAAAAAAAAAA [CACACA_site5871]	7.74
ATGCAATTATATAGTAGTACAAATTTATAAATATAC [XGTACX_site4869]	6.76
ATATATATATATATGGGTACGTAAAAATATAATAAA [XGTACX_site4036]	9.11

Sequence	gcPBM binding intensity (ln)
AAAAAAATTACATATCCATTTTAACATAATAAATAG [GTGCAC_negctrl_site618]	6.03
TTACGAATAAAACAGTGTACATTGAATTTCTATGAG [XGTACX_site4771]	6.39
ATTCTATTCTCCTTCACACACAAAAATATTTCATCA [CACACA_site2360]	6.98
ATCTATGGGTAGTATACACACTGTATATTTAGGAAT [CACACA_site5569]	6.55
TTTTTGCAAAAAGAAATAATTTTATTTTAGTTCGGA [CACACA_negctrl_site1718]	8.69
TCCATGCAGAAACACACACACAAAAAAAAATTCTTT [CACACA_site4099]	6.47
AATTATATATAACGTAGTACATATTATAAACCACGT [XGTACX_site8816]	6.23
ACCTATATAAATTATACACACAAATATAAATATATA [CACACA_site2843]	6.62
ATATTCCTTTAATATTGTACTATTTTTTTCCTTATA [XGTACX_site8659]	6.62
TTGTTATTCCACCGTTGTACAGTTATATACATACAC [XGTACX_site8296]	7.2
TGTCATAAAACCGTTTGTACATATTAATAGACACCT [XGTACX_site4520]	6.42
TATAATAATAATGATAGTACGTATGAGTTCAAGAAA [XGTACX_site4918]	6.34
ACTAATAACAAAAGCTTGCACTTTTTTTTTCCTAAT	7.04
TGTATCCACATATGTACACACATATATCTGTATATG [CACACA_site5668]	6.99
TATAATTTTCTTAGTAGTACATTTTAAATCTACTAC [XGTACX_site2621]	6.3
TATGTACAAATATGTACACACACACCGATATATATA [CACACA_site4487]	7.04
ATATAAGATTACAAAAATTATGTGTAAATATTTAAT [XGTACX_negctrl_site448]	6.63
AAAAAAAAAAAAAAAAGTACAAAAATTATATTAAGA [XGTACX_site4255]	6.2
TTACTTGTTTATTTTATTTTTTTTTTTTTTTTGTTA [TGCATGCA_negctrl_site266]	5.73
AGTGAGAAATACATAATAATACATTATGTGCATATT [XGTACX_negctrl_site247]	10.7
AAGAATATTTTTTTCTGTACATATAATTTATATACG [XGTACX_site5801]	6.05
GTACACATATATATATATATATATATATATATATTA [CACACA_negctrl_site1580]	7.73

Sequence	gcPBM binding intensity (ln)
ATATTAAGAATATATACACACATAAGTATTGTATAT [CACACA_site6110]	6.25
ATAAAATAAAATAAATGTACACGAAAAAAAATATTT [XGTACX_site3747]	7.15
TATTCGTGCAATAGTAGTACACTTATAAATTATTCT [XGTACX_site4899]	9.93
AAGGAGATAATTTATTGTACATATAATAAATGAACA [XGTACX_site6252]	6.12
TCTTACAAAAAAAAAAAAAAATAAAATAAAATATAT [CACACA_negctrl_site1575]	6.11
TTAATATTATGTTAAAGTACTTTATATATATATAAT [XGTACX_site2646]	6.54
TTCATTTACCCTTATTAACACACAAAATATAATACG [CACACA_site8821]	6.93
TGTATATTATAAGATAGTACATATATATAATATATA [XGTACX_site1297]	6.39
ATCTTATATATACGTTGTACTACAGGATATGTCATA [XGTACX_site5734]	6.63
ATAAATATCATATATATACACACGTAATACATAATA [CACACA_site4001]	6.55
TAATTACAAAAACATACACACAAAAAAAAAAAAAAA [CACACA_site3782]	6.22
AGCAAATACAAACACACACACACATATACATATATA [CACACA_site3497]	6.96
ACATACATATATATACGTACATATATATTTATATAT [XGTACX_site5799]	6.84
ATTCTAAATATCAGTGCACACATTTCTACGCAAAGT [CACACA_site474]	9.78
GTTGGTAGATTTATTTGTACATATGTATCATATTAT [XGTACX_site7135]	6.82
AAAAATTTATTTTGTTTTTTAAGATTTTTTTTTTTT [CACACA_negctrl_site1210]	5.85
TATATTATATATTGGGGTACATATATATAAATATAA [XGTACX_site2296]	6.62
TATCAATATTAAAAAGTGCAAAATAAAATATAAAAT [GTGCAC_site9486]	8.47
TATGTTATATTATAAGGATAAATTTTGATTATATAA [TGCATGCA_negctrl_site600]	6.01
AGAATAAAAAGGAACACACACACACCCATATATATA [CACACA_site3590]	6.94
ATGTACATTTTTTTCACACATACATTAATTTATGAG [CACACA_site5801]	6.82
TATATTTACATTGTAACACACATGAAATATTTATAT [CACACA_site6178]	6.41

Sequence	gcPBM binding intensity (ln)
TAGACTAATCCCAAAAGTACAGAAAAATTATATTAT [XGTACX_site8663]	6.37
AAAATAAATAGATAAGCACACAAGCATATAGACATA [CACACA_site7958]	6.53
TAATTTCTTATGTATTGTACATATAATATATGATAT [XGTACX_site4898]	6.49
AATATATTTATGCTCATGCACTTTTTTTTTTTTTTT [GTGCAC_site9654]	10
TTTATTTATTATTAAAGTACTAAATTACATTATTAT [XGTACX_site6624]	5.91
TATTTAATTACATGAACACACATTAGATATTTTTAA [CACACA_site7405]	6.33
TTATTTCAAATTAATTTACACACTTCATACTAAAAG [CACACA_site9039]	6.82
CATTATTTACCGCCGTGTACGTAATGAGAAATTAAA [XGTACX_site4662]	6.34
TAATAAAAAAAGTGCACACACATAATATTTATATAT [CACACA_site7548]	8.75
GAAAACAAATATGTAGCACACATTCACATAATATAT [CACACA_site8731]	6.52
TTATGTTGTAAATGCACACATACAAATACAGATACA [CACACA_site4876]	10.1
ATTATAATGGTAAAGTGTACAAATTTTTATTACACC [XGTACX_site5274]	6.5
ATAAATATAAAAATTTGTACATATATAGGTATAGGT [XGTACX_site1735]	7.06
ACATACAAGAATTAAACACACACAAAATATAAATTC [CACACA_site8985]	6.8
TCTTGTATATACAGTAGTACTAAAAATTATTAAATA [XGTACX_site7896]	6.5
AATCAAAATTAATTAACACACAATTTTAATATTCTT [CACACA_site2063]	6.14
ATTGTTTATATTGATTGTACTCATTTTTTTTTTATT [XGTACX_site1946]	6.92
TCCTGTGATTATATAACACACATTATTGCTTATAAG [CACACA_site1518]	6.83
ATATATTATATATATTACAACTTAAGAATATACATA [TGCATGCA_negctrl_site371]	6.26
ATAGTAAACGAAATAAAAAGATTAGCATAATATCCT [CACACA_negctrl_site1730]	6.46
ATATATTGAAAAAAATGTACGTATTTTTTTATGTTA [XGTACX_site4654]	6.39
ATTATATATATATATACACACACACCCTAAAAATAT [CACACA_site8463]	7.22
